The list shows a part of the results.

B1: PhoQ; a variant is named by its letters at X, in order, P23837 (parent)
chain: MKKLLRLFFPLSLRVRFLLATAAVVLVLSLAYGMVALIGYSVSFDKTTFRLLRGESNLFYTLAKWENNKLHVELPENIDKQSPTMTLIYDENGQLLWAQRDVPWLMKMIQPDWLKSNGFHEIEADVNDTSLLLSGDHSIQQQLQEVREDDDDAEMTHSVAVNVYPATSRMPKLTIVVVDTIPVELKSSYMVWSWFIYVLSANLLLVIPLLWVAAWWSLRPIEALAKEVRELEEHNRELLNPATTRELTSLVRNLNRLLKSERERYDKYRTTLTDLTHSLKTPLXXLQXXLRSLRSEKMSVSDAEPVMLEQISRISQQIGYYLHRASMRGGTLLSRELHPVAPLLDNLTSALNKVYQRKGVNISLDISPEISFVGEQNDFVEVMGNVLDNACKYCLEFVEISARQTDEHLYIVVEDDGPGIPLSKREVIFDRGQRVDTLRPGQGVGLAVAREITEQYEGKIVAGESMLGGARMEVIFGRQHSAPKDE

The variants in this assay derive from B1. The experiment in a line: enrichment ratio after two sorts for PhoP signalling (ratio (wild type AVST 3.29)); higher = more functional. The following applies: with PhoP (E. coli).
Take WAFN: the enrichment ratio was at most 0.25.
As for NRHC, the figure is at most 0.25; as for NLLE, at most 0.25; as for VDSQ, at most 0.25.
The result for DLSV reads at most 0.25; that for IYQC, at most 0.25.
The result for WYRE reads at most 0.25; that for GTRR, at most 0.25; that for VGSN, at most 0.25.
Consider TCPR, for which the enrichment ratio is at most 0.25.
The result for VREP reads at most 0.25; that for HMVR, at most 0.25; that for HFIT, at most 0.25.
As for MARV, the figure is at most 0.25; as for KRCE, at most 0.25; as for QGNR, at most 0.25.
SPKI: the enrichment ratio was at most 0.25.
As for QWSS, the figure is at most 0.25.
The result for STSR reads at most 0.25; that for WQWI, at most 0.25; that for YQQF, at most 0.25.
As to VCHD, the enrichment ratio is at most 0.25.
As for RDKR, the figure is at most 0.25.
Consider IRKW, for which the enrichment ratio is at most 0.25.
As for TCMK, the figure is 7.01.
ITGY: the enrichment ratio was at most 0.25.
The result for YVLD reads at most 0.25; that for AGTT, 5.54; that for PEMP, at most 0.25.
As for FVQK, the figure is at most 0.25; as for TEAR, 7.95.
The result for WQDH reads at most 0.25; that for YKSG, at most 0.25.
As for ARMK, the enrichment ratio is at most 0.25.
As for RWLF, the figure is at most 0.25.
The result for QIDS reads at most 0.25; that for HRMM, at most 0.25; that for IGDH, at most 0.25.
As for ENGE, the figure is at most 0.25; as for HNNQ, at most 0.25.
AHSP: the enrichment ratio was at most 0.25.
As for FSSA, the figure is at most 0.25; as for KGMY, at most 0.25.
QFYD: the enrichment ratio is at most 0.25.
For PYHW, the enrichment ratio is at most 0.25.
The result for GHAI reads at most 0.25; that for MQNH, at most 0.25.
Regarding MIFN, the enrichment ratio turned out to be 11.
The result for KAVA reads at most 0.25.
The result for QNPM reads at most 0.25; that for WWVP, at most 0.25; that for VYKM, at most 0.25.
As for KFHN, the figure is at most 0.25; as for AHFY, at most 0.25; as for QFQL, at most 0.25.
LSQI: the enrichment ratio is at most 0.25.
As for WAQF, the figure is at most 0.25; as for TITL, 9.42.
The result for RQEN reads at most 0.25.
The result for HSAY reads at most 0.25; that for QFIS, at most 0.25.
Regarding MNKP, the enrichment ratio was at most 0.25.
As for AFRP, the figure is at most 0.25; as for THIS, at most 0.25.
As for KSIK, the figure is at most 0.25; as for EMWL, at most 0.25.
The result for PYDT reads at most 0.25.
QAIV: the enrichment ratio was at most 0.25.
As for LFHS, the figure is at most 0.25; as for REDN, at most 0.25; as for REFT, at most 0.25.
As for YLMC, the figure is at most 0.25; as for MQMH, at most 0.25.
As for ACTQ, the figure is 1.85.
Take RAWK: the enrichment ratio was at most 0.25.
The result for LFQF reads at most 0.25; that for REYC, at most 0.25; that for KTPK, at most 0.25.
As for MFSC, the figure is at most 0.25; as for KIGN, at most 0.25; as for LDMQ, at most 0.25.
As for LTKF, the figure is at most 0.25; as for DYDK, at most 0.25; as for SRVK, at most 0.25.
On to AYYF, for which the enrichment ratio was at most 0.25.
For NTFV, the enrichment ratio was at most 0.25.
Turning to MCFV, the enrichment ratio is 3.99.
On to RDTN, for which the enrichment ratio is at most 0.25.
The result for EVDH reads at most 0.25; that for IMRF, at most 0.25; that for DQMR, at most 0.25.
DARK: the enrichment ratio is at most 0.25.
As for YNEQ, the figure is at most 0.25.
With FCRK, the enrichment ratio was at most 0.25.
As for SRVT, the figure is at most 0.25; as for VQYA, at most 0.25; as for AFHF, at most 0.25.
The result for KSQM reads at most 0.25; that for MWFS, at most 0.25; that for EIFD, at most 0.25.
As for QELP, the figure is at most 0.25.
DSWK: the enrichment ratio was at most 0.25.
As for MYDH, the figure is at most 0.25; as for EETG, 3.69.
As for MCIY, the figure is at most 0.25; as for FATH, at most 0.25; as for LRSW, at most 0.25.
The result for ISLL reads 9.63.
ILSI: the enrichment ratio is at most 0.25.
The result for FKSM reads at most 0.25; that for KHDY, at most 0.25.
For QRCQ, the enrichment ratio is at most 0.25.
In the case of WYPV, the enrichment ratio is at most 0.25.
As for WTGI, the figure is at most 0.25; as for WCIG, at most 0.25.
On to HNMD, for which the enrichment ratio is at most 0.25.
As for LQVT, the enrichment ratio was at most 0.25.
Regarding HVTN, the enrichment ratio was at most 0.25.
With CNLI, the enrichment ratio was determined as 12.7.
As for RFGS, the figure is at most 0.25; as for HTKT, at most 0.25.
As for TKDL, the figure is at most 0.25; as for QQVF, at most 0.25.
As for WDIW, the figure is at most 0.25; as for QRRH, at most 0.25; as for PTWL, at most 0.25.
With PITR, the enrichment ratio was at most 0.25.
As for HVFA, the figure is at most 0.25; as for QTPG, at most 0.25.
The result for QHGE reads at most 0.25.
As for LNCS, the figure is at most 0.25.
Consider PVEY, for which the enrichment ratio is at most 0.25.
As for TMHM, the figure is at most 0.25; as for VEFL, at most 0.25.
As for NPER, the figure is at most 0.25.
The result for FSKC reads at most 0.25; that for KAFW, at most 0.25; that for RQME, at most 0.25.
Turning to NRFW, the enrichment ratio is at most 0.25.
For the variant IAYW, the enrichment ratio was at most 0.25.
The result for PMEI reads at most 0.25; that for AESP, at most 0.25.
As for KSFD, the figure is at most 0.25; as for WAKS, at most 0.25.
As for DCAW, the figure is at most 0.25; as for WTPE, at most 0.25; as for FSGC, at most 0.25.
For the variant TWQH, the enrichment ratio was at most 0.25.
The result for ILTI reads at most 0.25.
As for KHIN, the figure is at most 0.25.
As for MFIQ, the figure is at most 0.25; as for RPPW, at most 0.25.
In the case of PCAH, the enrichment ratio was at most 0.25.
With YNGE, the enrichment ratio is at most 0.25.
Take VMNR: the enrichment ratio is at most 0.25.
The result for RTMG reads at most 0.25; that for LLEK, at most 0.25.
The result for NRMQ reads at most 0.25; that for WKQI, at most 0.25.
The result for LMFR reads at most 0.25.
TPRW: the enrichment ratio was at most 0.25.
The result for DPMV reads at most 0.25; that for DKYL, at most 0.25; that for AKFR, at most 0.25.
The result for EFNR reads at most 0.25; that for LMIV, at most 0.25; that for LEFV, 7.47.
As for LYSM, the figure is at most 0.25; as for LNKH, at most 0.25.
With IAYD, the enrichment ratio was at most 0.25.
For QTKL, the enrichment ratio is at most 0.25.
The result for RGKL reads at most 0.25; that for VKLQ, at most 0.25.
The result for HNVI reads at most 0.25; that for AGPW, at most 0.25; that for RENA, at most 0.25.
Take GADL: the enrichment ratio is at most 0.25.
The result for ECQF reads at most 0.25; that for QVRW, at most 0.25.
As for LTGP, the figure is 0.646.
As for NCMK, the figure is at most 0.25.
For the variant SFEK, the enrichment ratio is at most 0.25.
The result for QDCA reads at most 0.25.
For DQVW, the enrichment ratio is at most 0.25.
The result for WTFK reads at most 0.25.
Take VRHM: the enrichment ratio is at most 0.25.
As for KYWF, the enrichment ratio is at most 0.25.
The result for KLST reads at most 0.25.
Turning to IPNP, the enrichment ratio was at most 0.25.
The result for GIMF reads 6.62.
The result for MKYP reads at most 0.25; that for ARDD, at most 0.25; that for YHTF, at most 0.25.
The result for LVQV reads at most 0.25; that for TDAH, 9.5.

Values taken from a collection of fitness landscapes (doi:10.1126/science.1257360).
